Our source for the binding values is publication PMC7044329.

Amino acid sequences for entries named in this document (tags omitted).
UniProt Q9Y2F5: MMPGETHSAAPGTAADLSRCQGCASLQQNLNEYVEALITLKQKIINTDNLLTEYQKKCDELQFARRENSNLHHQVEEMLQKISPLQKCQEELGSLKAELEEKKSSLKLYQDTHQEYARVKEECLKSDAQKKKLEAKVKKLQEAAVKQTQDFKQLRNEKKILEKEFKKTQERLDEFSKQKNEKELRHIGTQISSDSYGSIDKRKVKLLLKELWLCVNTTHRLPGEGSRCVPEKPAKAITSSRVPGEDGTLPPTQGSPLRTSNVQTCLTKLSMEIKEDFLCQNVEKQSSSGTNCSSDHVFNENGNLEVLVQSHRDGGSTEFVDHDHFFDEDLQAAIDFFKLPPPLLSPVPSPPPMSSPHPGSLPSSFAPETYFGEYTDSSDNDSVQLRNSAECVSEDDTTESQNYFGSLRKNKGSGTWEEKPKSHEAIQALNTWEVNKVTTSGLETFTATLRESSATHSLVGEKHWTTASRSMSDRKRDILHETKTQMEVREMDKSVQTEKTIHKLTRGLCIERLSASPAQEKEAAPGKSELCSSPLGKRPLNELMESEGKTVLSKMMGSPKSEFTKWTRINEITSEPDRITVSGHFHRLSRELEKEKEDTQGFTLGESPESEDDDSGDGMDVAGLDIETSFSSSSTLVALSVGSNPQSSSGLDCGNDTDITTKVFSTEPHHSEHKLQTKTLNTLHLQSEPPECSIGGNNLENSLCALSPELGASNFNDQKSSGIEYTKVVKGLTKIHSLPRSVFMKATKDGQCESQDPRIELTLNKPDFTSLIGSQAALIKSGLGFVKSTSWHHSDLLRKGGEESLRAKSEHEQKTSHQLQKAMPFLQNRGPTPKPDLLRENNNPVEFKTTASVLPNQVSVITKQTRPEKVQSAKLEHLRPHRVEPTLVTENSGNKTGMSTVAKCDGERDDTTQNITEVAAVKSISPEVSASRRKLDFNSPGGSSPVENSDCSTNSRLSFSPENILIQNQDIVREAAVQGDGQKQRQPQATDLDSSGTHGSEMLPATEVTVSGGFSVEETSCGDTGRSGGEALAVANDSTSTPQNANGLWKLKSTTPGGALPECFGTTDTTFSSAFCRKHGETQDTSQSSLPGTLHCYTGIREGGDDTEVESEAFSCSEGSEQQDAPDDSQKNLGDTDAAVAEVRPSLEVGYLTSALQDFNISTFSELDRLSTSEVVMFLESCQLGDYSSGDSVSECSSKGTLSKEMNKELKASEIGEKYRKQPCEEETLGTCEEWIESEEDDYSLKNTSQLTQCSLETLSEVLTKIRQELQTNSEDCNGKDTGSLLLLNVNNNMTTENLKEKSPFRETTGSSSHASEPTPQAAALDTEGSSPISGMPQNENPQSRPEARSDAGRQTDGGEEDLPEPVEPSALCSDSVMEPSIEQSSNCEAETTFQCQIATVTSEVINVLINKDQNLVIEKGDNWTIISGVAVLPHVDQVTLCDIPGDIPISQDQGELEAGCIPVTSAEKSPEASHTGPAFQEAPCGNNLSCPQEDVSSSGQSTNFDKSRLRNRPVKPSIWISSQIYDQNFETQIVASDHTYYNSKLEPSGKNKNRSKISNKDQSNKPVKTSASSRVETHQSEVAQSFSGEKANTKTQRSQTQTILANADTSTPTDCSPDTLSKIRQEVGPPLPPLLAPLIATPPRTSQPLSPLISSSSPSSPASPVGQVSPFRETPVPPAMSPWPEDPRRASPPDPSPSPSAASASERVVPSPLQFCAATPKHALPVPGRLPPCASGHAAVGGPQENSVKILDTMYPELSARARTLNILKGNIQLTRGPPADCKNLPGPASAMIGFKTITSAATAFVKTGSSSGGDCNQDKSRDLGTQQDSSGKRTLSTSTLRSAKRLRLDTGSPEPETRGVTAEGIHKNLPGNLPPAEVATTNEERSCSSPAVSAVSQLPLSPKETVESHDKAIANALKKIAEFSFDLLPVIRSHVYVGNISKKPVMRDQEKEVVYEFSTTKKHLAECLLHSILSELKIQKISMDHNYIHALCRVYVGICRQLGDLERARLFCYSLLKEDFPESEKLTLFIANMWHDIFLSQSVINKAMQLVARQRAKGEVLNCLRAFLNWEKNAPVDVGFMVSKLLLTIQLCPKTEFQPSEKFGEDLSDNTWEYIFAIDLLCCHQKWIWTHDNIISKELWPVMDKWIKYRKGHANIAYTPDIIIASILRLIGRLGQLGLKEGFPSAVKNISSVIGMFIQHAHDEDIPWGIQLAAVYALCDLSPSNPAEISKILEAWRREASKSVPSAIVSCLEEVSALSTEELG
UniProt P42568: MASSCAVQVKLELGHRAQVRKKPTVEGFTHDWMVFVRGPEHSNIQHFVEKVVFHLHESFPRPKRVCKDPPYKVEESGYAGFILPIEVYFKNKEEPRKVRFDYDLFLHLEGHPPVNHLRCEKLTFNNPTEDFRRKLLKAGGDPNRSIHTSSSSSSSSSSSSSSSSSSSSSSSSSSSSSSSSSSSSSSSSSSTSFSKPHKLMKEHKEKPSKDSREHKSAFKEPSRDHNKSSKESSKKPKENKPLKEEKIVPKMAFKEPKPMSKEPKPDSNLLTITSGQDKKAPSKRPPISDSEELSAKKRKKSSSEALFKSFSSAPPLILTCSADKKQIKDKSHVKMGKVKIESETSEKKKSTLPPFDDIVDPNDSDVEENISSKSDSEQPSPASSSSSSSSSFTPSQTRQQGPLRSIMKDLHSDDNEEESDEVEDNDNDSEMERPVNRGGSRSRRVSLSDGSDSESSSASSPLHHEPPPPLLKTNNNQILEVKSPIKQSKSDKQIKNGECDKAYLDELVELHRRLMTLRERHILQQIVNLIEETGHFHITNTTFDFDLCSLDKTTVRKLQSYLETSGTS
UniProt Q15648: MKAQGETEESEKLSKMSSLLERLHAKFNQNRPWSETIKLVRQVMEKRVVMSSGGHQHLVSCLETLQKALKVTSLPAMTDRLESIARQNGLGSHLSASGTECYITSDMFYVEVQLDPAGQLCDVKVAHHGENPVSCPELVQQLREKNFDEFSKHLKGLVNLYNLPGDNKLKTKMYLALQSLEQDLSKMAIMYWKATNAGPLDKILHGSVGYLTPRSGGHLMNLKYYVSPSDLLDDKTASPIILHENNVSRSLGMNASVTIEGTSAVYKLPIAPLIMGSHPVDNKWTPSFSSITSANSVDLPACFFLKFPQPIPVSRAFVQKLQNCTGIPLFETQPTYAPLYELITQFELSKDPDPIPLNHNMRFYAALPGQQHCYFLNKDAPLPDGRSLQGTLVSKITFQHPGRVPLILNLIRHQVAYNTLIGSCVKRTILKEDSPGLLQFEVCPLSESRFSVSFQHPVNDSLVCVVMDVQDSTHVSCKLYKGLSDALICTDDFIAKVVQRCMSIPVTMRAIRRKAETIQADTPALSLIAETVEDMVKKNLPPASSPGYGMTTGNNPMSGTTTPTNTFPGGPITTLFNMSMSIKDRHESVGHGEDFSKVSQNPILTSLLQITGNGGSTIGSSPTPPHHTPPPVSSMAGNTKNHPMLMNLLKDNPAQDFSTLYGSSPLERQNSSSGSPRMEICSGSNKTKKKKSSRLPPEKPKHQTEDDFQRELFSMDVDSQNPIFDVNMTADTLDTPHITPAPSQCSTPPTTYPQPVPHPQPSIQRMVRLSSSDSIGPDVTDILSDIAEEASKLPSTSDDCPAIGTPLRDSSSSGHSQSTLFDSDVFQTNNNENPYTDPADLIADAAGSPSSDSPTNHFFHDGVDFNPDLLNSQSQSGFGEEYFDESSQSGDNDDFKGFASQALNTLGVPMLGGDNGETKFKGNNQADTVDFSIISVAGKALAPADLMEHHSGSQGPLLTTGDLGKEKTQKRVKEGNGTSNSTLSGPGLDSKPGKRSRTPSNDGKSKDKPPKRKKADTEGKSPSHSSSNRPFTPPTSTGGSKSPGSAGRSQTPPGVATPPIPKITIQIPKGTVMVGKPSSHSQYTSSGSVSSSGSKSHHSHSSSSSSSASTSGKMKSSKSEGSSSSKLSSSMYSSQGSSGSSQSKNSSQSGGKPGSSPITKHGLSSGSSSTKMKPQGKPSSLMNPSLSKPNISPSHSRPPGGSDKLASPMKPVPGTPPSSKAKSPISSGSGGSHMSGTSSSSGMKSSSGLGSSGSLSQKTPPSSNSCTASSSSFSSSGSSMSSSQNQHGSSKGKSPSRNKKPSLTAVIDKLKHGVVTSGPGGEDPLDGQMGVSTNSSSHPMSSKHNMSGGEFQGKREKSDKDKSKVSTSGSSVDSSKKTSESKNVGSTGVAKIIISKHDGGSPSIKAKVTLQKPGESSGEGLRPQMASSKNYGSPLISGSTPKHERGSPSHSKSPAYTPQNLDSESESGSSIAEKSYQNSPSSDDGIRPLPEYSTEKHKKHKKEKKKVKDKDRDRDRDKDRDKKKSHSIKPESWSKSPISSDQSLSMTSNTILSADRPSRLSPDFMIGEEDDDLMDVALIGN
UniProt Q96HW7: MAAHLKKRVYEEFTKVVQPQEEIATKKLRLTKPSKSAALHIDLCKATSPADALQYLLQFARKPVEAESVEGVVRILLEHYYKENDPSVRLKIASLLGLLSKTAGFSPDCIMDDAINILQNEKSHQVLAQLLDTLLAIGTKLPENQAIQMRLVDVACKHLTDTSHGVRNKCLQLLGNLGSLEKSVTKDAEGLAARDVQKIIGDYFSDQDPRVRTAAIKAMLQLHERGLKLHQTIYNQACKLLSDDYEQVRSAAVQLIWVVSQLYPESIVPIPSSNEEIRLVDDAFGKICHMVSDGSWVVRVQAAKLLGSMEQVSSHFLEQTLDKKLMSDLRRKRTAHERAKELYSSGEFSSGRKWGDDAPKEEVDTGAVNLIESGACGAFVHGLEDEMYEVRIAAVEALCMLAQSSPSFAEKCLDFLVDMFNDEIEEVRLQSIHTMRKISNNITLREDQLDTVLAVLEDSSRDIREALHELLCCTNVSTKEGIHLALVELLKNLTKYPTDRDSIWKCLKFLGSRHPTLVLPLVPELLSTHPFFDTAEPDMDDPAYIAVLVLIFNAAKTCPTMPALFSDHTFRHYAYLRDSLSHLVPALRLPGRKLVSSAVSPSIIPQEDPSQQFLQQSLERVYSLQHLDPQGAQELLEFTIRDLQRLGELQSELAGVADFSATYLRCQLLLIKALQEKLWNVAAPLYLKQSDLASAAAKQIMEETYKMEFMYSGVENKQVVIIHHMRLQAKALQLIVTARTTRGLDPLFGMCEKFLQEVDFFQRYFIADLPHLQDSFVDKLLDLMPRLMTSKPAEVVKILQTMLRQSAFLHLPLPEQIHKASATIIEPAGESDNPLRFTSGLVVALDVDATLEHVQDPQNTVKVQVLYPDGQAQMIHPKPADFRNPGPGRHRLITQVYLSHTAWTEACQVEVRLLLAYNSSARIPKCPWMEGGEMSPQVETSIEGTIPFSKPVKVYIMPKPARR
UniProt Q9NV88: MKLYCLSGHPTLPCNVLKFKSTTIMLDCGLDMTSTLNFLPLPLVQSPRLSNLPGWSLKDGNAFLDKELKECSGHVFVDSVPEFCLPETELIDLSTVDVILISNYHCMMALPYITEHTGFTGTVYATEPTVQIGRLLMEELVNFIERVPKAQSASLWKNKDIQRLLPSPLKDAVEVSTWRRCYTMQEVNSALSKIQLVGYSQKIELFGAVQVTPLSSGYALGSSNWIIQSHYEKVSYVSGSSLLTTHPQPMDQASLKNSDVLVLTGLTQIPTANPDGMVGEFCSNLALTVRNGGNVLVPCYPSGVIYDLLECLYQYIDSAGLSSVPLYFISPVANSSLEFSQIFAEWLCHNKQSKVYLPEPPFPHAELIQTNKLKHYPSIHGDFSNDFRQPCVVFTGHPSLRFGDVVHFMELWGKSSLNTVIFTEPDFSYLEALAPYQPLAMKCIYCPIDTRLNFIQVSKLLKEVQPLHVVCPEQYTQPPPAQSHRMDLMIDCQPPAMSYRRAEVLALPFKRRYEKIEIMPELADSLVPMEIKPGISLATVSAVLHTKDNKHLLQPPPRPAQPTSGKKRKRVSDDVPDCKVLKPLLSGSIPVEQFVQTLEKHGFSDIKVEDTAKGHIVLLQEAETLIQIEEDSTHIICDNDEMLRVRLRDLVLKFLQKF

Results are given in words; binding and its absence hold for the method and conditions named. Binding seen in cells or lysates may run through a third protein. Some entries that bind do so weakly or less than the wild type. For some of these results: Sequences can lack the tags named with a protein.

Experiment [1] has as its target FLAG-tagged ICE1 (interactor of little elongation complex ELL subunit 1) (UniProt Q9Y2F5). Kind of experiment: co-IP; anti-FLAG agarose purification from nuclear extracts (prepared with Benzonase) of cells stably expressing FLAG-tagged proteins, elution with FLAG peptide; western blotting; parental 293FRT cells as control.
For a further experiment, the target named is T1, FLAG-tagged BTBD19 (UniProt C9JJ37).
T1 sequence: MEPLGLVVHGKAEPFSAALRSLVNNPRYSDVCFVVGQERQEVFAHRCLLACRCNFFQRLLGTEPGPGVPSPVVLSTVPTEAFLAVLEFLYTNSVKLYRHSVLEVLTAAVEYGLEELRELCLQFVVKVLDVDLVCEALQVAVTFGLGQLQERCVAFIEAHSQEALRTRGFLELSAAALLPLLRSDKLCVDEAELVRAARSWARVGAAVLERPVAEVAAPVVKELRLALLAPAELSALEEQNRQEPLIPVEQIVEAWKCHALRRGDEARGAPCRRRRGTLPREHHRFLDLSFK
The description is as above.

The target of a further experiment is FLAG-tagged AF9 (UniProt P42568). The description is as above.
The target of experiment [2] is endogenous ICE1 (human (endogenous in HEK293T)) (UniProt Q9Y2F5). The experiment is described as follows: co-IP; nuclear extracts of HEK293T cells with anti-ICE1 antibodies #1 or #2 or normal rabbit IgG on protein A magnetic beads, 2 h at 4 °C; wash 40 mM HEPES-NaOH pH 7.9, 0.15 M NaCl, 0.1% Triton X-100; western blotting. On the technique in general: Immunoblotting shows a protein as a band on a membrane.

“stem-loop-binding protein (SLBP) (from UniProt Q14493 1-270)”: the binding entry in experiment [1] is listed as “binds”.

As to “Mediator subunit MED1 (from UniProt Q15648 1-1581)”, the binding result was “binds” in experiment [1], “no binding” in the experiment with FLAG-tagged BTBD19 and “binds” with FLAG-tagged AF9.

For the molecule INTS4 (from UniProt Q96HW7 1-963), in experiment [2], the binding result was “binds”.

As to INTS9 (from UniProt Q9NV88 1-658), the binding result in experiment [1] is recorded as “binds”.

B1: CPSF3 (CPSF73) (protein, UniProt Q9UKF6 1-684)
chain: MSAIPAEESDQLLIRPLGAGQEVGRSCIILEFKGRKIMLDCGIHPGLEGMDALPYIDLIDPAEIDLLLISHFHLDHCGALPWFLQKTSFKGRTFMTHATKAIYRWLLSDYVKVSNISADDMLYTETDLEESMDKIETINFHEVKEVAGIKFWCYHAGHVLGAAMFMIEIAGVKLLYTGDFSRQEDRHLMAAEIPNIKPDILIIESTYGTHIHEKREEREARFCNTVHDIVNRGGRGLIPVFALGRAQELLLILDEYWQNHPELHDIPIYYASSLAKKCMAVYQTYVNAMNDKIRKQININNPFVFKHISNLKSMDHFDDIGPSVVMASPGMMQSGLSRELFESWCTDKRNGVIIAGYCVEGTLAKHIMSEPEEITTMSGQKLPLKMSVDYISFSAHTDYQQTSEFIRALKPPHVILVHGEQNEMARLKAALIREYEDNDEVHIEVHNPRNTEAVTLNFRGEKLAKVMGFLADKKPEQGQRVSGILVKRNFNYHILSPCDLSNYTDLAMSTVKQTQAIPYTGPFNLLCYQLQKLTGDVEELEIQEKPALKVFKNITVIQEPGMVVLEWLANPSNDMYADTVTTVILEVQSNPKIRKGAVQKVSKKLEMHVYSKRLEIMLQDIFGEDCVSVKDDSILSVTVDGKTANLNLETRTVECEEGSEDDESLREMVELAAQRLYEALTPVH
For the molecule B1, in experiment [1], the binding entry is given as “binds”.

B2: Symplekin (protein, UniProt Q92797 1-1274)
chain: MASGSGDSVTRRSVASQFFTQEEGPGIDGMTTSERVVDLLNQAALITNDSKITVLKQVQELIINKDPTLLDNFLDEIIAFQADKSIEVRKFVIGFIEEACKRDIELLLKLIANLNMLLRDENVNVVKKAILTMTQLYKVALQWMVKSRVISELQEACWDMVSAMAGDIILLLDSDNDGIRTHAIKFVEGLIVTLSPRMADSEIPRRQEHDISLDRIPRDHPYIQYNVLWEEGKAALEQLLKFMVHPAISSINLTTALGSLANIARQRPMFMSEVIQAYETLHANLPPTLAKSQVSSVRKNLKLHLLSVLKHPASLEFQAQITTLLVDLGTPQAEIARNMPSSKDTRKRPRDDSDSTLKKMKLEPNLGEDDEDKDLEPGPSGTSKASAQISGQSDTDITAEFLQPLLTPDNVANLVLISMVYLPEAMPASFQAIYTPVESAGTEAQIKHLARLMATQMTAAGLGPGVEQTKQCKEEPKEEKVVKTESVLIKRRLSAQGQAISVVGSLSSMSPLEEEAPQAKRRPEPIIPVTQPRLAGAGGRKKIFRLSDVLKPLTDAQVEAMKLGAVKRILRAEKAVACSGAAQVRIKILASLVTQFNSGLKAEVLSFILEDVRARLDLAFAWLYQEYNAYLAAGASGSLDKYEDCLIRLLSGLQEKPDQKDGIFTKVVLEAPLITESALEVVRKYCEDESRTYLGMSTLRDLIFKRPSRQFQYLHVLLDLSSHEKDKVRSQALLFIKRMYEKEQLREYVEKFALNYLQLLVHPNPPSVLFGADKDTEVAAPWTEETVKQCLYLYLALLPQNHKLIHELAAVYTEAIADIKRTVLRVIEQPIRGMGMNSPELLLLVENCPKGAETLVTRCLHSLTDKVPPSPELVKRVRDLYHKRLPDVRFLIPVLNGLEKKEVIQALPKLIKLNPIVVKEVFNRLLGTQHGEGNSALSPLNPGELLIALHNIDSVKCDMKSIIKATNLCFAERNVYTSEVLAVVMQQLMEQSPLPMLLMRTVIQSLTMYPRLGGFVMNILSRLIMKQVWKYPKVWEGFIKCCQRTKPQSFQVILQLPPQQLGAVFDKCPELREPLLAHVRSFTPHQQAHIPNSIMTILEASGKQEPEAKEAPAGPLEEDDLEPLTLAPAPAPRPPQDLIGLRLAQEKALKRQLEEEQKLKPGGVGAPSSSSPSPSPSARPGPPPSEEAMDFREEGPECETPGIFISMDDDSGLTEAALLDSSLEGPLPKETAAGGLTLKEERSPQTLAPVGEDAMKTPSPAAEDAREPEAKGNS
B2: the binding entry in experiment [2] is reported as “binds”.

B3: Mediator subunit MED23 (protein, UniProt Q9ULK4 1-1368)
chain: METQLQSIFEEVVKTEVIEEAFPGMFMDTPEDEKTKLISCLGAFRQFWGGLSQESHEQCIQWIVKFIHGQHSPKRISFLYDCLAMAVETGLLPPRLVCESLINSDTLEWERTQLWALTFKLVRKIIGGVDYKGVRDLLKVILEKILTIPNTVSSAVVQQLLAAREVIAYILERNACLLPAYFAVTEIRKLYPEGKLPHWLLGNLVSDFVDTFRPTARINSICGRCSLLPVVNNSGAICNSWKLDPATLRFPLKGLLPYDKDLFEPQTALLRYVLEQPYSRDMVCNMLGLNKQHKQRCPVLEDQLVDLVVYAMERSETEEKFDDGGTSQLLWQHLSSQLIFFVLFQFASFPHMVLSLHQKLAGRGLIKGRDHLMWVLLQFISGSIQKNALADFLPVMKLFDLLYPEKEYIPVPDINKPQSTHAFAMTCIWIHLNRKAQNDNSKLQIPIPHSLRLHHEFLQQSLRNKSLQMNDYKIALLCNAYSTNSECFTLPMGALVETIYGNGIMRIPLPGTNCMASGSITPLPMNLLDSLTVHAKMSLIHSIATRVIKLAHAKSSVALAPALVETYSRLLVYMEIESLGIKGFISQLLPTVFKSHAWGILHTLLEMFSYRMHHIQPHYRVQLLSHLHTLAAVAQTNQNQLHLCVESTALRLITALGSSEVQPQFTRFLSDPKTVLSAESEELNRALILTLARATHVTDFFTGSDSIQGTWCKDILQTIMSFTPHNWASHTLSCFPGPLQAFFKQNNVPQESRFNLKKNVEEEYRKWKSMSNENDIITHFSMQGSPPLFLCLLWKMLLETDHINQIGYRVLERIGARALVAHVRTFADFLVYEFSTSAGGQQLNKCIEILNDMVWKYNIVTLDRLILCLAMRSHEGNEAQVCYFIIQLLLLKPNDFRNRVSDFVKENSPEHWLQNDWHTKHMNYHKKYPEKLYFEGLAEQVDPPVQIQSPYLPIYFGNVCLRFLPVFDIVIHRFLELLPVSKSLETLLDHLGGLYKFHDRPVTYLYNTLHYYEMHLRDRAFLKRKLVHAIIGSLKDNRPQGWCLSDTYLKCAMNAREENPWVPDDTYYCRLIGRLVDTMAGKSPGPFPNCDWRFNEFPNPAAHALHVTCVELMALAVSGKEVGNALLNVVLKSQPLVPRENITAWMNAIGLIITALPEPYWIVLHDRIVSVISSPSLTSETEWVGYPFRLFDFTACHQSYSEMSCSYTLALAHAVWHHSSIGQLSLIPKFLTEVLLPIVKTEFQLLYVYHLVGPFLQRFQQERTRCMIEIGVAFYDMLLNVDQCSTHLNYMDPICDFLYHMKYMFTGDSVKEQVEKIICNLKPALKLRLRFITHISKMEPAAVPPQAMNSGSPAPQSNQVPVSLPVTQ
As for B3, the binding entry in experiment [1] is reported as “binds”; in the experiment with FLAG-tagged BTBD19 it was “no binding”.

B4: Mediator subunit MED26 (protein, UniProt O95402 1-600)
chain: MTAAPASPQQIRDRLLQAIDPQSNIRNMVAVLEVISSLEKYPITKEALEETRLGKLINDVRKKTKNEELAKRAKKLLRSWQKLIEPAHQHEAALRGLAGATGSANGGAHNCRPEVGAAGPPRSIHDLKSRNDLQRLPGQRLDRLGSRKRRGDQRDLGHPGPPPKVSKASHDPLVPNSSPLPTNGISGSPESFASSLDGSGHAGPEGSRLERDENDKHSGKIPVNAVRPHTSSPGLGKPPGPCLQPKASVLQQLDRVDETPGPPHPKGPPRCSFSPRNSRHEGSFARQQSLYAPKGSVPSPSPRPQALDATQVPSPLPLAQPSTPPVRRLELLPSAESPVCWLEQPESHQRLAGPGCKAGLSPAEPLLSRAGFSPDSSKADSDAASSGGSDSKKKKRYRPRDYTVNLDGQVAEAGVKPVRLKERKLTFDPMTRQIKPLTQKEPVRADSPVHMEQQSRTELDKQEAKASLQSPFEQTNWKELSRNEIIQSYLSRQSSLLSSSGAQTPGAHHFMSEYLKQEESTRQGARQLHVLVPQSPPTDLPGLTREVTQDDLDRIQASQWPGVNGCQDTQGNWYDWTQCISLDPHGDDGRLNILPYVCLD
As to B4, the binding entry in experiment [1] is on record as “binds”; in the experiment with FLAG-tagged BTBD19, “no binding”; in the experiment with FLAG-tagged AF9 it was “binds”.
